Test results published in the antibiotic and cytotoxicity screens of Wong et al. (2023).
The list shows a part of the results.

The compounds below were run on HepG2 (assay: cytotoxicity call (relative viability < 0.9)). Details: 10 µM.

SMILES | cytotoxicity call
C[C@H]1CN([C@@H](C)CO)C(=O)c2cccc(NS(=O)(=O)c3ccccc3)c2O[C@@H]1CN(C)S(=O)(=O)c1cccs1 | inactive
COc1ccc(NC(=O)Nc2ccc3c(c2)CC(=O)N([C@@H](C)CO)C[C@@H](C)[C@@H](CN(C)Cc2ccc(Oc4ccccc4)cc2)O3)cc1 | active
C=CC[C@H](CC(=O)NCCO)C(=O)NC[C@H](OC(=O)[C@H](CC=C)CC(=O)OC(C)(C)C)c1ccccc1 | inactive
C[C@H](CO)N1C[C@H](C)[C@H](CN(C)Cc2ccc(Cl)c(Cl)c2)Oc2c(NS(=O)(=O)c3ccccc3)cccc2C1=O | inactive
COc1cc(N2CCN(S(C)(=O)=O)CC2)nc(C)n1 | inactive
C[C@@H]1CN([C@H](C)CO)C(=O)c2cccc(NC(=O)NC3CCCCC3)c2O[C@H]1CN(C)Cc1ccc(Oc2ccccc2)cc1 | inactive
COc1ccc(COC[C@]23Oc4ccccc4[C@H]([C@H]2CO[Si](C)(C)C(C)(C)C)N(C(=O)CC(C)=O)C(=O)N3C)cc1 | inactive
COC(=O)c1cccc(NC(=N)N=C(N)N)c1 | inactive
Cn1cnc(S(=O)(=O)N2C[C@@H](O)COC[C@@H]3O[C@H](CC(=O)NCc4ccc(F)cc4)CC[C@H]32)c1 | inactive
C[C@H]1CN([C@@H](C)CO)S(=O)(=O)c2ccc(-c3ccc(F)cc3)cc2O[C@H]1CN(C)S(C)(=O)=O | inactive

Each compound was assayed on S. aureus RN4220 (assay: growth inhibition call (relative growth <= 0.2)). Details: 50 µM.

SMILES | growth inhibition call
C[C@H]1CCCCO[C@@H](CN(C)C(=O)Nc2ccccc2)[C@@H](C)CN([C@@H](C)CO)C(=O)c2cc(NC(=O)Nc3ccccc3)ccc2O1 | inactive
COc1ccc(CN(C)C[C@H]2Oc3ccc(NC(=O)C4CC4)cc3CC(=O)N([C@H](C)CO)C[C@@H]2C)cc1 | inactive
C[C@H](CO)N1C[C@H](C)[C@H](CN(C)Cc2ccc3c(c2)OCO3)Oc2c(NC(=O)C3CC3)cccc2C1=O | inactive
C[C@@H]1CN([C@H](C)CO)C(=O)c2cc(NC(=O)Nc3ccc4c(c3)OCO4)ccc2O[C@@H](C)CCCCO[C@H]1CN(C)Cc1ccc(C(=O)O)cc1 | inactive
Cc1ccc(S(=O)(=O)N[C@H]2CC[C@H](CC(=O)NCc3ccc(Cl)c(Cl)c3)O[C@H]2CO)cc1 | inactive
C[C@@H]1CN([C@@H](C)CO)C(=O)Cc2cc(NC(=O)C3CC3)ccc2O[C@@H]1CN(C)S(=O)(=O)c1cn(C)cn1 | inactive
C[C@H](CO)N1C[C@H](C)[C@H](CN(C)Cc2ccc3c(c2)OCO3)Oc2ncc(C#CCN(C)C)cc2C1=O | inactive
C[C@H](CO)N1C[C@H](C)[C@@H](CN(C)C(=O)C2CCCCC2)Oc2cc(C#C[C@@H](C)O)ccc2S1(=O)=O | inactive
C[C@H](CO)N1C[C@H](C)[C@H](CN(C)Cc2ccc(Oc3ccccc3)cc2)Oc2c(NC(=O)Nc3ccc4c(c3)OCO4)cccc2C1=O | inactive
COCC(=O)Nc1ccc2c(c1)C(=O)N(C)[C@H]1CC[C@H](CC(=O)N3CCc4ccccc4C3)O[C@@H]1CO2 | inactive
CC(C)(C)[S@@](=O)N1Cc2cc(C(=O)N[C@H]3CCN(Cc4ccccc4)C3)nc(-c3cccc(-c4ccncc4)c3)c2[C@H]1CCO | inactive
COc1ccc(S(=O)(=O)N(C)C[C@H]2Oc3ccc(NC(=O)Cn4cnnn4)cc3C(=O)N([C@H](C)CO)C[C@@H]2C)cc1 | inactive
C[C@@H]1CN([C@@H](C)CO)C(=O)c2cccc(NS(=O)(=O)c3cn(C)cn3)c2O[C@H]1CN(C)S(=O)(=O)c1cn(C)cn1 | inactive
C[C@@H]1CN([C@H](C)CO)C(=O)c2cc(C#CC3(O)CCCC3)cnc2O[C@@H]1CN(C)C(=O)Nc1ccc2c(c1)OCO2 | inactive
Cc1noc(C)c1S(=O)(=O)N(C)C[C@@H]1Oc2ccc(NC(=O)CCN3CCOCC3)cc2CC(=O)N([C@@H](C)CO)C[C@H]1C | inactive
Cc1noc(C)c1S(=O)(=O)Nc1ccc2c(c1)CC(=O)N([C@H](C)CO)C[C@@H](C)[C@H](CN(C)S(=O)(=O)c1ccccc1)O2 | inactive
Cn1cnc(S(=O)(=O)N2C[C@H](O)COC[C@@H]3O[C@@H](CC(=O)NCc4cc(F)cc(F)c4)CC[C@H]32)c1 | inactive
C[C@@H]1CN([C@@H](C)CO)C(=O)Cc2cc(NC(=O)Cn3cnnn3)ccc2O[C@@H]1CN(C)CC1CCCCC1 | inactive
C[C@@H](O)C#Cc1cnc2c(c1)C(=O)N([C@@H](C)CO)C[C@H](C)[C@H](CN(C)C(=O)CN1CCOCC1)O2 | inactive
